In test [1] the target is T1, MBP-tagged TBSV p33 (Tomato bushy stunt virus) (UniProt P15962).
T1 sequence: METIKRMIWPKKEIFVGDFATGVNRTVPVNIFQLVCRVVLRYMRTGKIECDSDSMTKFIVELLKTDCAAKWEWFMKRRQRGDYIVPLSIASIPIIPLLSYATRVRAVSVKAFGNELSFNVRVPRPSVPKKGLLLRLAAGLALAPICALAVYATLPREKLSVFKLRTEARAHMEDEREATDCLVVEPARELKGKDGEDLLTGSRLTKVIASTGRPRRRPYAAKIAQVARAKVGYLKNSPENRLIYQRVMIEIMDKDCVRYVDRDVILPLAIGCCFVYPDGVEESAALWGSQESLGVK
In words: pull-down; MBP-tagged p33 derivatives from E. coli immobilised on amylose columns; lysate of BY4741 yeast with FLAG-tagged cyclophilin (200 mM NaCl, 0.1% NP40, RNase A) incubated 3 h at 4°C; washed with 100 mM NaCl buffer; eluted with maltose; anti-FLAG Western blot; only the target purified.

Sequences of proteins named here, by UniProt entry; tags and fusion partners are left off. Residues count along the entry.
UniProt P17460, residues 1-250: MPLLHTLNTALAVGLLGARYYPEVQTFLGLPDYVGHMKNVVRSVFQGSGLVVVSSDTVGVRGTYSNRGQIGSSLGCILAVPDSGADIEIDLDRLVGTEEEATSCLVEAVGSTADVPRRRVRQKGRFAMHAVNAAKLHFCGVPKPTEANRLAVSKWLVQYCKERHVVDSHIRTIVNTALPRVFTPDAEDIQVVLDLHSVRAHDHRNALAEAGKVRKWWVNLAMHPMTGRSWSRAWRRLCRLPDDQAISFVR
UniProt Q9IMM4: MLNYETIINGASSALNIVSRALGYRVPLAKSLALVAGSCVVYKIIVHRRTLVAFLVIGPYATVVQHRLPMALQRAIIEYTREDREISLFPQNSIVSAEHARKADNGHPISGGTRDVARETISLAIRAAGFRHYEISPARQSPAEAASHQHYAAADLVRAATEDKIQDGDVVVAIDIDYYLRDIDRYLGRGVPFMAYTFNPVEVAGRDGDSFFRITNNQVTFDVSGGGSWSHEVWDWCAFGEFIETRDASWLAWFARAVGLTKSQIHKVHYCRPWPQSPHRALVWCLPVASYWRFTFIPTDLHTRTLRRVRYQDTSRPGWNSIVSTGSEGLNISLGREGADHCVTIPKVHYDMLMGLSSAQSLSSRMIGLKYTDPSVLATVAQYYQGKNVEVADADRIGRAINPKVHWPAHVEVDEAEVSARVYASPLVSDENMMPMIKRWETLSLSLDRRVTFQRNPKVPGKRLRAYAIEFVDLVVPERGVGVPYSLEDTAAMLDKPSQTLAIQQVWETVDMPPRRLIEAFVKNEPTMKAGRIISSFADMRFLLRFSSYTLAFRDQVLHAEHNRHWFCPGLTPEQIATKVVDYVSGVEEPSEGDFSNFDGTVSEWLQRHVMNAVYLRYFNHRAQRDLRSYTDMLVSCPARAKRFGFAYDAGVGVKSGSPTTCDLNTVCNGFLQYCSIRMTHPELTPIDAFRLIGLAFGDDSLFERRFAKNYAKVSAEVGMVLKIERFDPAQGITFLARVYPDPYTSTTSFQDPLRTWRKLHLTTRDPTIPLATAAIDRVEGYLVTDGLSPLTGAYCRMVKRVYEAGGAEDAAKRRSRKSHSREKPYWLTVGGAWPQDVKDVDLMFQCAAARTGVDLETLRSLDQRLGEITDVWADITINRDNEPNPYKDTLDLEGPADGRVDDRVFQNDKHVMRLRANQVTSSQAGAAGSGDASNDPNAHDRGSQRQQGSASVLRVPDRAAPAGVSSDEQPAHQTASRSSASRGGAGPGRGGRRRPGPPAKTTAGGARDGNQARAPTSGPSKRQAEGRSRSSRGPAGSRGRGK
UniProt P53691: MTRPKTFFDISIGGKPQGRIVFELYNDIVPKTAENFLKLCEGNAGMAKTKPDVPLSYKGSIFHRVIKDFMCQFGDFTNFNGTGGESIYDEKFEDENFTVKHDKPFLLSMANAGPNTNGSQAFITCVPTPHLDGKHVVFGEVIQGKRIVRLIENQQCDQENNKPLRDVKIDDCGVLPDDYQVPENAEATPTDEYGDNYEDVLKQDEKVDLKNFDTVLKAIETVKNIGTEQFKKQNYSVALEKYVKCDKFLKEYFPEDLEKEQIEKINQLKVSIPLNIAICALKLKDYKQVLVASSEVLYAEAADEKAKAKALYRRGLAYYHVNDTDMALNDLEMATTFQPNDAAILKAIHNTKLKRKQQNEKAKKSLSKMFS
UniProt P25334, residues 21-318: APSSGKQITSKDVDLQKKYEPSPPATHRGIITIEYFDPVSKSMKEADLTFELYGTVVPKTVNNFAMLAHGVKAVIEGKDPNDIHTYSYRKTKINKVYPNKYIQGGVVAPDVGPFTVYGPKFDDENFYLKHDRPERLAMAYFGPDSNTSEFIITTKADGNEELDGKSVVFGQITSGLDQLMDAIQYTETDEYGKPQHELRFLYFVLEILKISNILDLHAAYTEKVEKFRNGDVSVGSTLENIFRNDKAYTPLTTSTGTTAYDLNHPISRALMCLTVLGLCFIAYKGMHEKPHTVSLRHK
UniProt P25719, residues 21-182: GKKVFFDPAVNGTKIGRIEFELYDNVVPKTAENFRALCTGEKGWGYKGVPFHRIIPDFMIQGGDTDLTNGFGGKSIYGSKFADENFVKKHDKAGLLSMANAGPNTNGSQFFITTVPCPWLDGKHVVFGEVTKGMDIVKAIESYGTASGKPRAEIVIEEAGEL
UniProt P20081: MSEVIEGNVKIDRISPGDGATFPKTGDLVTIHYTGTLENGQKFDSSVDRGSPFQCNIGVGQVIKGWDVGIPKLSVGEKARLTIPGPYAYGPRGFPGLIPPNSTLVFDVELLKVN
UniProt P35176, residues 23-225: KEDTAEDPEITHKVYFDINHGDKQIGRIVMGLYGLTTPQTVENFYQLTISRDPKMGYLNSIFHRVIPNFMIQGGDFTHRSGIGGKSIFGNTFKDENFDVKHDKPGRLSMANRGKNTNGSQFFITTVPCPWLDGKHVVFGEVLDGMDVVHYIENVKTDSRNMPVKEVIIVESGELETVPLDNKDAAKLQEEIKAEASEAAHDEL
UniProt P14832: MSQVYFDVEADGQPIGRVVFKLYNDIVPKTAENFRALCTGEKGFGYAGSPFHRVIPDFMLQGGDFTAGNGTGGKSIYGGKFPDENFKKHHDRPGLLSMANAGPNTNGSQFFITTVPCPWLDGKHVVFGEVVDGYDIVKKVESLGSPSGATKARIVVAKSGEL
UniProt P53728: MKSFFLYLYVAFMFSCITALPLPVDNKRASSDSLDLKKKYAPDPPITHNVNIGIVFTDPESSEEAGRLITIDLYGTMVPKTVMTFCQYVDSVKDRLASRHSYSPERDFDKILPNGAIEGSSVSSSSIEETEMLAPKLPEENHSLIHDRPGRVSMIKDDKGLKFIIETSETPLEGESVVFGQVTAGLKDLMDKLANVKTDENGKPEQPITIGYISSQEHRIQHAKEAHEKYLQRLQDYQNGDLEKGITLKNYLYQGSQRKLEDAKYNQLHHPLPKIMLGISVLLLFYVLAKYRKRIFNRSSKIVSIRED
UniProt P32472, residues 18-135: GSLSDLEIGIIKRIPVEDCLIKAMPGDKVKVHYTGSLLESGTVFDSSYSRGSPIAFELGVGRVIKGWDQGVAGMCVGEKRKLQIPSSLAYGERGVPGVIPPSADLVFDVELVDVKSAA
UniProt P23285, residues 21-205: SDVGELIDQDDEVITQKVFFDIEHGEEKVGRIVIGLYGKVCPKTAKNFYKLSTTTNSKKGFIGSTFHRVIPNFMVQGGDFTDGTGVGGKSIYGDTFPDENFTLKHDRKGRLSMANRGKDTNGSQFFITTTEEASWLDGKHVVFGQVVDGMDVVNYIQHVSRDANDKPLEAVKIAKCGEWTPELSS

Test [2] has as its target T2, TBSV p33 replication protein (split-ubiquitin bait, pGAD-BT2-N-His33) (Tomato bushy stunt virus) (UniProt P15962).
T2 sequence: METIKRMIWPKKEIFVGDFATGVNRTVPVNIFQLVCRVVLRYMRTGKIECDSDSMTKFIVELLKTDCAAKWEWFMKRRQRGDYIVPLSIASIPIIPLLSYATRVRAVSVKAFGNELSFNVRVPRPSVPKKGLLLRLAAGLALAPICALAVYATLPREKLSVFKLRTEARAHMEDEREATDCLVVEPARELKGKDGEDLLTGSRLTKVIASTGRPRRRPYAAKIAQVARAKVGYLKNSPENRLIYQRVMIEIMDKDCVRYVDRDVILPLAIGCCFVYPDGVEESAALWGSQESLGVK
In words: two-hybrid; split-ubiquitin membrane yeast two-hybrid (MYTH, Dualmembrane kit3); viral replication protein as bait co-expressed with NubG prey in yeast NMY51; growth on Trp-/Leu-/His-/Ade- plates.

Test [3] has as its target p28 replication protein of Turnip crinkle virus (TCV) (MYTH bait) (Turnip crinkle virus) (UniProt P17460). Described as above.
Test [4] addresses protein A of Nodamuravirus (NoV) (MYTH bait) (Nodamura virus) (UniProt Q9IMM4). The description is as above.
Test [5] concerns the target T2, TBSV p33 replication protein (split-ubiquitin bait, pGAD-BT2-N-His33) (Tomato bushy stunt virus). The description is as above. This is another data set of the same source.
Test [6] addresses p28 replication protein of Turnip crinkle virus (TCV) (MYTH bait) (Turnip crinkle virus) (UniProt P17460). Described as above. This is another data set of the same source.
The target of test [7] is protein A of Nodamuravirus (NoV) (MYTH bait) (Nodamura virus) (UniProt Q9IMM4). The description is as above. This is another data set of the same source.
Test [8] has as its target T1, MBP-tagged TBSV p33 (Tomato bushy stunt virus). In words: pull-down; MBP-tagged p33 derivatives from E. coli immobilised on amylose columns; lysate of BY4741 yeast with FLAG-tagged cyclophilin (200 mM NaCl, 0.1% NP40, RNase A) incubated 3 h at 4°C; washed with 100 mM NaCl buffer; eluted with maltose; anti-FLAG Western blot; only the target purified. This is another data set of the same source.

Like-named read-outs stand apart in the source and are kept apart here. No constants are given. Whether binding was seen depends on the method and setting. For some assays here: Binding seen in cells or lysates may run through a third protein. Some entries that bind do so weakly or less than the wild type. For some assays here: Sequences can lack the tags named with a protein.

In the case of “FLAG-tagged Cpr6p (from UniProt P53691 1-371)”, the binding result in test [1] is recorded as “binds”.

With “Cpr4p cyclophilin (MYTH prey) (from UniProt P25334 21-318)”, in test [2], the binding result is “no binding”.

Regarding “Cpr3p cyclophilin (MYTH prey) (from UniProt P25719 21-182)”, the binding entry in test [2], in test [3] and in test [4] was “binds” throughout.

In the case of “Fpr1p (MYTH prey) (from UniProt P20081 1-114)”, in test [2], the binding entry is reported as “binds”.

As to “Cpr6p Cyp40-like cyclophilin (MYTH prey) (from UniProt P53691 1-371)”, the binding entry in test [2], in test [3] and in test [4] was “binds” in each case.

In the case of “Cpr5p cyclophilin (MYTH prey) (from UniProt P35176 23-225)”, the binding entry in test [2] was “no binding”.

With “Cpr1p cyclophilin (MYTH prey) (from UniProt P14832 1-162)”, the binding entry in test [2], in test [3] and in test [4] was “binds” throughout.

For “Cpr8p cyclophilin (MYTH prey) (from UniProt P53728 1-308)”, in test [2], the binding result was “no binding”.

Regarding “Fpr2p (MYTH prey) (from UniProt P32472 18-135)”, in test [2], the binding result is given as “no binding”.

Regarding “Cpr2p cyclophilin (MYTH prey) (from UniProt P23285 21-205)”, the binding entry in test [2] is “no binding”.

B1: Cpr7p Cyp40-like cyclophilin (MYTH prey, pPRN-N-CPR7) (protein, UniProt P47103 1-393)
chain: MIQDPLVYLDISIDKKPIGRIVCKLFREKAPKTTENFYKLCAGDVKSPLKDQQYLSYKGNGFHRVVKNFMIQAGDIVFGTQKDSSSSSVGKGGCSIYADKEEVKTDDESFCYGNFEDENLGEFVEPFTLGMANLGSPNTNNSQFFITTYAAPHLNGKHSIFGQVVHGKSVVRTIENCRVDSDGVPESDVRISDCGVWEKTMGVPLYNASNDQIGGDVYEEYPDDDTHFGDDDFGKALEAANIIKESGTLLFKKKDYSNAFFKYRKSLNYINEYMPEPDVDKERNIQFINLKMKIYLNLSLVLFNLERYDDAIMYATYLLEMDNVPNRDQAKAYYRRGNSYLKKKRLDEALQDYIFCKEKNPDDEVIEQRIEYVNRLIEENKEKTRKNISKFFS
Take B1: the binding entry in test [5], in test [6] and in test [7] was “binds” throughout.

B2: FLAG-tagged Cpr7p (pESC-His-CupFlag-CPR7) (protein, UniProt P47103 1-393)
chain: MIQDPLVYLDISIDKKPIGRIVCKLFREKAPKTTENFYKLCAGDVKSPLKDQQYLSYKGNGFHRVVKNFMIQAGDIVFGTQKDSSSSSVGKGGCSIYADKEEVKTDDESFCYGNFEDENLGEFVEPFTLGMANLGSPNTNNSQFFITTYAAPHLNGKHSIFGQVVHGKSVVRTIENCRVDSDGVPESDVRISDCGVWEKTMGVPLYNASNDQIGGDVYEEYPDDDTHFGDDDFGKALEAANIIKESGTLLFKKKDYSNAFFKYRKSLNYINEYMPEPDVDKERNIQFINLKMKIYLNLSLVLFNLERYDDAIMYATYLLEMDNVPNRDQAKAYYRRGNSYLKKKRLDEALQDYIFCKEKNPDDEVIEQRIEYVNRLIEENKEKTRKNISKFFS
Regarding B2, in test [8], the binding result is reported as “binds”.

These data come from paper PMC3276564.
